In the supplement of paper PMC12217912:
This is one part of the list. Sequences were assembled here from the parent chain. Values near 0.05 are background.

B1: TEV protease; numbered along this chain (parent)
chain: MGESLFKGPRDYNPISSSICHLTNESDGHTTSLYGIGFGPFIITNKHLFRRNNGTLVVQSLHGVFKVKDTTTLQQHLVDGRDMIIIRMPKDFPPFPQKLKFREPQREERICLVTTNFQTKSMSSMVSDTSCTFPSGDGIFWKHWIQTKDGQCGSPLVSTRDGFIVGIHSASNFTNTNNYFTSVPKNFMELLTNQEAQQWVSGWRLNADSVLWGGHKVFMVKPEEPFQPVKEATQL

Variants of: B1
Experiment: raw area under fraction-flipped curve 0-4 h after induction (AUC4h, not background-subtracted), DNA-recorder readout of cleavage of the substrate (dimensionless); higher = more cleavage of the substrate by the protease variant
Conditions: temperature: 34 °C; time window: 0-4 h after rhamnose induction
Procedure: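 In vivo DNA recorder in E. coli TOP10(DE3) ΔrhaA at 34 °C. Each TEVp single-site mutant (parent TEVp 0) is paired with a single-site variant of the 7-mer TEVs (canonical ENLYFQ|S). The substrate sits between flexible linkers in a Bxb1-sfGFP-TEVs-SsrA fusion, so cleavage stabilises Bxb1 and speeds flipping of a recombination array, read by NGS. The value is the raw area under the fraction-flipped curve over 0-4 h after rhamnose induction (AUC4h), with ≥20 reads per time point. It is not background-subtracted; inactive controls average about 0.047.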
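Note: Bxb1 expression induced with 0.2% (w/v) L-rhamnose at OD600 near 0.5, cultures sampled hourly, flipped fraction per protease–substrate barcode pair counted by paired-end Illumina sequencing.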

| Variant | area with substrate FNLYFQS | area with substrate HNLYFQS | area with substrate INLYFQS | area with substrate PNLYFQS | area with substrate SNLYFQS | area with substrate TNLYFQS | area with substrate VNLYFQS | area with substrate WNLYFQS | area with substrate YNLYFQS | area with substrate KNLYFQS |
| --- | --- | --- | --- | --- | --- | --- | --- | --- | --- | --- |
| E103M | 0.0608 | 0.0692 | 0.0543 | 0.0713 | 0.074 | 0.0765 | 0.0558 | 0.057 | 0.0748 |  |
| F218V | 0.0649 | 0.0491 | 0.0653 | 0.0363 |  |  |  | 0.0552 | 0.0019 | 0.06 |
| H143N | 0.0532 | 0.0666 |  |  |  | 0.052 |  |  | 0.0435 |  |
| T44M | 0.0473 | 0.0511 | 0.0543 | 0.0561 | 0.0576 | 0.0542 |  | 0.0459 | 0.0449 | 0.0492 |
| L235P | 0.0876 |  | 0.0755 | 0.0756 | 0.0653 | 0.0913 |  | 0.0461 |  |  |
| L235T | 0.0634 | 0.0478 |  | 0.0591 |  | 0.047 | 0.0729 | 0.0577 | 0.085 | 0.0712 |
| P228W | 0.057 | 0.0673 |  | 0.0735 |  | 0.0618 |  | 0.0604 |  | 0.0733 |
| Y179D | 0.0547 |  |  |  |  | 0.0477 |  | 0.0728 |  |  |
| S124C | 0.069 | 0.0538 |  |  |  |  |  | 0.0561 | 0.0514 | 0.0826 |
| A207R | 0.0606 |  |  |  | 0.0509 |  |  |  |  |  |
| Q97W | 0.0675 | 0.0476 |  |  |  |  |  | 0.0556 |  |  |
| K90M | 0.0625 |  |  |  | 0.0772 |  |  | 0.0588 |  |  |
| E189Y | 0.0614 |  |  |  |  |  |  |  |  |  |
| F92V | 0.0616 |  | 0.0586 |  | 0.0578 | 0.0694 |  | 0.0596 |  |  |
| K7V | 0.0519 |  |  | 0.0657 | 0.0702 | 0.0935 | 0.0715 | 0.078 | 0.08 |  |
| K7W | 0.0784 |  | 0.068 |  |  | 0.0738 | 0.0515 |  |  |  |
| V58M | 0.0483 |  | 0.0635 | 0.0633 | 0.0851 |  |  |  |  |  |
| E108G | 0.0575 |  |  | 0.0446 |  |  |  |  |  |  |
| S135H | 0.0488 | 0.0565 |  |  |  |  |  | 0.0731 |  |  |
| T147V | 0.0548 | 0.054 | 0.105 |  | 0.0523 |  |  |  | 0.0869 |  |
| Q59H | 0.0669 | 0.0624 | 0.0534 | 0.0584 | 0.0646 | 0.0614 | 0.0678 |  | 0.0762 | 0.0473 |
| I15G | 0.0592 |  | 0.0673 | 0.0567 |  | 0.0508 | 0.0594 | 0.0432 |  | 0.0604 |
| E3W | 0.0577 | 0.0485 |  | 0.0705 |  | 0.075 |  | 0.0589 | 0.0772 |  |
| D91M | 0.0612 |  |  | 0.0653 | 0.0784 |  |  |  |  | 0.0689 |
| D91S | 0.0361 | 0.0663 | 0.0624 |  |  | 0.0732 | 0.0745 | 0.0698 | 0.0658 |  |

Same assay, conditions: temperature: 34 °C; time window: 0-4 h after rhamnose induction

| Variant | area with substrate LNLYFQS | area with substrate MNLYFQS | area with substrate GNLYFQS | area with substrate NNLYFQS | area with substrate RNLYFQS | area with substrate QNLYFQS |
| --- | --- | --- | --- | --- | --- | --- |
| F218V | 0.0795 | 0.0632 |  |  |  |  |
| T44M |  |  | 0.0501 | 0.0458 |  |  |
| L235P |  | 0.0663 |  |  |  |  |
| L235T | 0.0488 |  |  |  |  |  |
| P228W |  |  |  | 0.0614 |  |  |
| Y179D |  |  |  | 0.0577 |  |  |
| S124C |  | 0.0666 |  |  |  |  |
| A207R |  |  |  |  | 0.0512 |  |
| Q97W | 0.0713 |  |  |  |  |  |
| K90M |  |  | 0.0715 |  |  | 0.0319 |
| K7V | 0.0623 |  |  | 0.0577 |  |  |
| K7W | 0.0835 | 0.0647 |  |  |  |  |
| V58M | 0.0654 |  | 0.0455 | 0.0364 |  |  |
| E108G | 0.0619 |  | 0.0463 |  |  |  |
| S135H | 0.0586 | 0.0613 |  |  |  |  |
| T147V | 0.07 |  |  |  |  |  |
| Q59H |  | 0.0591 | 0.069 |  |  |  |
| I15G | 0.0618 |  | 0.0605 |  |  | 0.0566 |
| E3W | 0.0677 | 0.0714 |  |  |  |  |
| D91M | 0.0748 |  |  |  |  |  |
| D91S |  |  |  | 0.0421 |  | 0.0681 |
